# ± gives the standard deviation of the averaged measurements. In all, about 2,900 compounds were measured (“NF-kB SEAP reporter activity, fold change vs agonist alone”: median about 0.99, highest 2% from about 2.6 on). Some of the results follow.
# Experiments:
# [1] = tested on: RAW-Dual; test: NF-kB SEAP reporter activity, fold change vs agonist alone; higher = enhanced NF-kB activity
# In short: (§1)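 Reporter activity is given as fold change relative to agonist-alone wells. To measure it, 50 nL of library stock was pin-tooled onto RAW-Dual macrophages (50,000 cells/well, DMEM, 384-well plates), a PRR agonist followed 1 h later, and cells stayed at 37 °C, 5% CO2. Twenty hours on, supernatant was assayed for IRF (QuantiLuc luminescence) and NF-κB (QuantiBlue, 620 nm absorbance), and wells under 70% of agonist-control IncuCyte confluency in both mask sets were marked cytotoxic.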
# [2] = tested on: RAW-Dual; test: NF-kB SEAP reporter activity, fold change vs agonist alone; cytotoxicity flag (confluency mask): cytotoxic (confluency <70% of control); higher = enhanced NF-kB activity
# In short: as §1
# [3] = tested on: RAW-Dual; test: NF-kB SEAP reporter activity, fold change vs agonist alone; cytotoxicity flag (confluency mask): not cytotoxic; higher = enhanced NF-kB activity
# In short: as §1
# [4] = library stock concentration (final ~1000-fold dilution): 10 mM, cytotoxicity flag (confluency mask): cytotoxic (confluency <70% of control), agonist: Imiquimod (TLR7) […]
# [5] = library stock concentration (final ~1000-fold dilution): 10 mM, cytotoxicity flag (confluency mask): cytotoxic (confluency <70% of control), agonist: MPLA (TLR4) […]
# [6] = agonist: ODN 1826 (TLR9) 0.5 ug/mL
# [7] = agonist: Pam2CSK4 (TLR2/6) 0.1 ug/mL
# [8] = agonist: Pam3CSK4 (TLR2/1) 0.1 ug/mL
# [9] = library stock concentration (final ~1000-fold dilution): 10 mM, cytotoxicity flag (confluency mask): not cytotoxic, agonist: Imiquimod (TLR7) […]
# [10] = library stock concentration (final ~1000-fold dilution): 10 mM, cytotoxicity flag (confluency mask): not cytotoxic, agonist: MPLA (TLR4) […]
structure (smiles),measurement,setting,value
CN(c1ncccc1CNc1nc(Nc2ccc3c(c2)CC(=O)N3)ncc1C(F)(F)F)S(C)(=O)=O.Cl,NF-kB SEAP reporter activity,[1]; [4],0.169
same,NF-kB SEAP reporter activity,[1]; [5],0.247
CN(c1ncccc1CNc1nc(Nc2ccc3c(c2)CC(=O)N3)ncc1C(F)(F)F)S(C)(=O)=O.Cl (library stock concentration (final ~1000-fold dilution): 10 mM),NF-kB SEAP reporter activity,[2]; agonist: LPS (TLR4) 0.1 ug/mL,0.194
same,NF-kB SEAP reporter activity,[2]; [6],0.29
same,NF-kB SEAP reporter activity,[2]; [7],0.0618
same,NF-kB SEAP reporter activity,[2]; [8],0.135
CCN(Cc1ccncc1)C(=O)C(CO)c1ccccc1 (stereo unspecified) (library stock concentration (final ~1000-fold dilution): 10 mM),NF-kB SEAP reporter activity,[3]; agonist: LPS (TLR4) 0.1 ug/mL,1.04
same,NF-kB SEAP reporter activity,[3]; [6],1.07
same,NF-kB SEAP reporter activity,[3]; [7],1.21
same,NF-kB SEAP reporter activity,[3]; [8],0.931
CCN(Cc1ccncc1)C(=O)C(CO)c1ccccc1 (stereo unspecified),NF-kB SEAP reporter activity,[1]; [9],0.911
same,NF-kB SEAP reporter activity,[1]; [10],1.04
c1ccc2c(-c3nccs3)c[nH]c2c1 (library stock concentration (final ~1000-fold dilution): 10 mM),NF-kB SEAP reporter activity,[3]; agonist: LPS (TLR4) 0.1 ug/mL,1.08
same,NF-kB SEAP reporter activity,[3]; [6],0.892
same,NF-kB SEAP reporter activity,[3]; [7],0.899
same,NF-kB SEAP reporter activity,[3]; [8],0.934
c1ccc2c(-c3nccs3)c[nH]c2c1,NF-kB SEAP reporter activity,[1]; [9],0.853
same,NF-kB SEAP reporter activity,[1]; [10],0.948
CNCCC(Oc1cccc2ccccc12)c1cccs1.Cl (stereo unspecified) (library stock concentration (final ~1000-fold dilution): 10 mM),NF-kB SEAP reporter activity,[2]; agonist: LPS (TLR4) 0.1 ug/mL,1.62
same,NF-kB SEAP reporter activity,[2]; [6],0.325
same,NF-kB SEAP reporter activity,[2]; [7],0.507
same,NF-kB SEAP reporter activity,[2]; [8],0.555
CNCCC(Oc1cccc2ccccc12)c1cccs1.Cl (stereo unspecified),NF-kB SEAP reporter activity,[1]; [4],1.77
same,NF-kB SEAP reporter activity,[1]; [5],1.7
CC(C)=CCC[C@](C)(O[C@@H]1O[C@H](CO)[C@@H](O)C(O)[C@H]1O)[C@H]1CC[C@]2(C)[C@H]1[C@H](O)CC1[C@@]3(C)CC[C@H](O)C(C)(C)[C@@H]3[C@@H](O[C@@H]3O[C@H](CO)[C@@H](O)[C@H](O)[C@H]3O[C@@H]3O[C@@H](C)[C@H](O)[C@@H](O)[C@H]3O)C[C@]12C (stereo partly specified) (library stock concentration (final ~1000-fold dilution): 10 mM),NF-kB SEAP reporter activity,[3]; agonist: LPS (TLR4) 0.1 ug/mL,1.14
same,NF-kB SEAP reporter activity,[3]; [6],1.19
same,NF-kB SEAP reporter activity,[3]; [7],1.18
same,NF-kB SEAP reporter activity,[3]; [8],0.983
CC(C)=CCC[C@](C)(O[C@@H]1O[C@H](CO)[C@@H](O)C(O)[C@H]1O)[C@H]1CC[C@]2(C)[C@H]1[C@H](O)CC1[C@@]3(C)CC[C@H](O)C(C)(C)[C@@H]3[C@@H](O[C@@H]3O[C@H](CO)[C@@H](O)[C@H](O)[C@H]3O[C@@H]3O[C@@H](C)[C@H](O)[C@@H](O)[C@H]3O)C[C@]12C (stereo partly specified),NF-kB SEAP reporter activity,[1]; [9],0.925
same,NF-kB SEAP reporter activity,[1]; [10],1.04
COC(C)Cn1c(=O)n(C)c2cnc3ccc(-c4cncc(C(C)(C)O)c4)cc3c21 (stereo unspecified) (library stock concentration (final ~1000-fold dilution): 10 mM),NF-kB SEAP reporter activity,[3]; agonist: LPS (TLR4) 0.1 ug/mL,1.84
same,NF-kB SEAP reporter activity,[3]; [6],1.26
same,NF-kB SEAP reporter activity,[3]; [7],0.476
same,NF-kB SEAP reporter activity,[3]; [8],1.03
COC(C)Cn1c(=O)n(C)c2cnc3ccc(-c4cncc(C(C)(C)O)c4)cc3c21 (stereo unspecified),NF-kB SEAP reporter activity,[1]; [9],0.865
same,NF-kB SEAP reporter activity,[1]; [10],1.85
CO[C@H](c1c(NC(=O)Nc2cnc(-n3nccn3)c(Cl)c2)cnc2cc(Cl)nn12)[C@@H](C)OC,NF-kB SEAP reporter activity,[1]; [9],0.986
same,NF-kB SEAP reporter activity,[1]; [10],0.994
CO[C@H](c1c(NC(=O)Nc2cnc(-n3nccn3)c(Cl)c2)cnc2cc(Cl)nn12)[C@@H](C)OC (library stock concentration (final ~1000-fold dilution): 10 mM),NF-kB SEAP reporter activity,[3]; agonist: LPS (TLR4) 0.1 ug/mL,1.37
same,NF-kB SEAP reporter activity,[3]; [6],0.862
same,NF-kB SEAP reporter activity,[3]; [7],0.76
same,NF-kB SEAP reporter activity,[3]; [8],0.777
CC(C)=CCc1cc(-c2coc3cc(O)ccc3c2=O)ccc1O (library stock concentration (final ~1000-fold dilution): 10 mM),NF-kB SEAP reporter activity,[3]; agonist: LPS (TLR4) 0.1 ug/mL,1.59
same,NF-kB SEAP reporter activity,[3]; [6],1.2
same,NF-kB SEAP reporter activity,[3]; [7],0.94
same,NF-kB SEAP reporter activity,[3]; [8],1.64
CC(C)=CCc1cc(-c2coc3cc(O)ccc3c2=O)ccc1O,NF-kB SEAP reporter activity,[1]; [9],1.15
same,NF-kB SEAP reporter activity,[1]; [10],1.23
COc1cc2ccc(=O)oc2c(OC)c1O,NF-kB SEAP reporter activity,"[1]; library stock concentration (final ~1000-fold dilution): .1 mM, cytotoxicity flag (confluency mask): not cytotoxic, agonist: Imiquimod (TLR7) […]",1.02
same,NF-kB SEAP reporter activity,"[1]; library stock concentration (final ~1000-fold dilution): .1 mM, cytotoxicity flag (confluency mask): not cytotoxic, agonist: MPLA (TLR4) […]",0.485
COc1cc2ccc(=O)oc2c(OC)c1O (library stock concentration (final ~1000-fold dilution): .1 mM),NF-kB SEAP reporter activity,[3]; agonist: LPS (TLR4) 0.1 ug/mL,0.387
same,NF-kB SEAP reporter activity,[3]; [6],1.09
same,NF-kB SEAP reporter activity,[3]; [7],1.02
same,NF-kB SEAP reporter activity,[3]; [8],0.896
CN1C2CCCC1CC(NC(=O)c1nn(C)c3ccccc13)C2 (stereo unspecified) (library stock concentration (final ~1000-fold dilution): 10 mM),NF-kB SEAP reporter activity,[3]; agonist: LPS (TLR4) 0.1 ug/mL,0.938
same,NF-kB SEAP reporter activity,[3]; [6],0.877
same,NF-kB SEAP reporter activity,[3]; [7],0.899
same,NF-kB SEAP reporter activity,[3]; [8],0.889
CN1C2CCCC1CC(NC(=O)c1nn(C)c3ccccc13)C2 (stereo unspecified),NF-kB SEAP reporter activity,[1]; [10],0.999
CCCCCCCCc1ccc(CCC(N)(CO)CO)cc1.Cl (library stock concentration (final ~1000-fold dilution): 10 mM),NF-kB SEAP reporter activity,[2]; agonist: LPS (TLR4) 0.1 ug/mL,0.682
same,NF-kB SEAP reporter activity,[2]; [6],0.784
same,NF-kB SEAP reporter activity,[2]; [7],0.272
same,NF-kB SEAP reporter activity,[2]; [8],0.37
CCCCCCCCc1ccc(CCC(N)(CO)CO)cc1.Cl,NF-kB SEAP reporter activity,[1]; [5],1.84
Cc1ccc(C(=O)c2cc(O)c(O)c([N+](=O)[O-])c2)cc1 (library stock concentration (final ~1000-fold dilution): 10 mM),NF-kB SEAP reporter activity,[3]; agonist: LPS (TLR4) 0.1 ug/mL,1.17
same,NF-kB SEAP reporter activity,[3]; [6],0.719
same,NF-kB SEAP reporter activity,[3]; [7],0.842
same,NF-kB SEAP reporter activity,[3]; [8],0.655
Cc1ccc(C(=O)c2cc(O)c(O)c([N+](=O)[O-])c2)cc1,NF-kB SEAP reporter activity,[1]; [9],0.872
same,NF-kB SEAP reporter activity,[1]; [10],1.11
O=C([O-])c1ccccc1O.[Na+] (library stock concentration (final ~1000-fold dilution): 10 mM),NF-kB SEAP reporter activity,[3]; agonist: LPS (TLR4) 0.1 ug/mL,1.04 ± 0.14
same,NF-kB SEAP reporter activity,[3]; [6],0.979 ± 0.11
same,NF-kB SEAP reporter activity,[3]; [7],1.04 ± 0.067
same,NF-kB SEAP reporter activity,[3]; [8],1.12 ± 0.055
O=C([O-])c1ccccc1O.[Na+],NF-kB SEAP reporter activity,[1]; [9],0.997 ± 0.1
same,NF-kB SEAP reporter activity,[1]; [10],1.02 ± 0.037
